Results reported in the RNAGym collection of RNA variant scans (doi:10.7554/elife.90254).
The source gives no read counts; variants with many changes may rest on few reads.

B1: LINE1-full (parent)
chain: UACGUAGGUGGUUUUCCCCUGAUAGUGCUAAGGGGGCCUGGAAGUUUGGACUGGGCAGAGCUCAACACAGCGUGGCAAAGUGGCUGUGGCUAGACUGCCUCUCUGGAUUCCUCGUCACUCAGCAGGGCAUCUCUGAGAGAAAUGCC

Variants of: B1
Experiment: self-cleavage, relative activity (ratio to wild type); higher = more cleavage; in vitro, sequencing; the parent is a self-cleaving ribozyme

Row | Variant | self-cleavage
1 | U26C U47A A65G U115C | 0.25
2 | U26C U47A U100C A121U U143C | 2.25
3 | U26C U47C A57G A59U C90U U132C A140G | 0.11
4 | U26C U47C A92U U102C | 0.54
5 | U26C U47C G58C U62A | 0.05
6 | U26C U47C U119A | 1.45
7 | U26C U47C U132A A136G | 1.02
8 | U26C U52A A78G | 0.51
9 | U26C U62A U134A | 0.12
10 | U26C U62C A69U G83A | 0.02
11 | U26C U62C U81A C84G | 0.07
12 | U26C U81C A94U U119C G125A A129C | 1.53
13 | U26C U85C C131U U134A | 0.02
14 | U26C U85C U112A A129G | 0
15 | U26C U87A A92G | 0.14
16 | U26C U87A U119C | 0.11
17 | U26C U87C A138G | 0.4
18 | U26C U91C A140G | 0.92
19 | U26C U96A U130G | 0.14
20 | U26C U96C G114U | 0.08
21 | U26C U100C A136G | 2.71
22 | U26C U108C C113U | 0.97
23 | U26C U109A U119C | 1.75
24 | U26C U109C U112C | 0

Row | Variant | self-cleavage
25 | U26C U112C C113U | 0.31
26 | U26C U112C U143C | 2.41
27 | U26C U115A A142U | 1.5
28 | U26C U119A A124G | 0.84
29 | U26C U130C U134A | 1.42
30 | U26G A31C A57U U115C A140G | 0.61
31 | U26G A42G G144A | 1.6
32 | U26G A43G A59U U62A A77G A138G A140U | 0.14
33 | U26G A67U G114C | 0.2
34 | U26G A77U A79G U109C | 0.87
35 | U26G C101U U119A A124G | 1.37
36 | U26G C128G A129G A136G | 1.44
37 | U26G G27A A67U U87A | 1.09
38 | U26G G35A U39A A124G | 1.47
39 | U26G G60U C101U | 0.11
40 | U26G U45C G48A U100A A117G A136G | 0.66
41 | U26G U46C A140G | 1.31
42 | U26G U52A G89A A136G | 0.03
43 | U26G U52A U112C G125A | 1.07
44 | U26G U52C A79G U85A | 0.39
45 | U26G U62A U134C | 0.22
46 | U26G U81A U100A | 2.09
47 | U26G U87G A140G | 0.33
48 | G27A A43C U46C G49U | 1.8

Row | Variant | self-cleavage
49 | G27A A57G A79G A92G A141G | 0.23
50 | G27A A57G U87C | 0.1
51 | G27A A57G U119C A129U U130C A142G | 0
52 | G27A A59G C123A | 0.1
53 | G27A A77U U115C U119C | 0.62
54 | G27A A78U A129U A140G | 1.69
55 | G27A C37A U134C | 1.19
56 | G27A C38U A64C A121G | 0.15
57 | G27A C84G U134A | 0
58 | G27A U39A A79G A129G A142G | 0.79
59 | G27A U45C U47C | 1.11
60 | G27A U62A U87A U130A U134A | 0.05
61 | G27A U87C U108C | 0
62 | G27A U112C A140G A142G | 0.12
63 | G27U A42U U62C A77G | 0
64 | G27U G40U U47A A67G | 0.21
65 | C28A A43G A77G A92G C113A | 0.05
66 | C28A A77C A94C A117G | 0
67 | C28A U47C A59G | 0.11
68 | C28A U73C A78G | 0.98
69 | C28A U96C U102C | 0.09
70 | C28G A31G U102C | 0.92
71 | C28G A65U A117G | 0.19
72 | C28G U45C A121U | 1.02

Row | Variant | self-cleavage
73 | C28G U62C C146G | 0.22
74 | C28U A42G G82A | 1.36
75 | C28U A57U A67G C113A U143C | 0.08
76 | C28U A59U A141G | 0.52
77 | C28U A64G C128U | 0.13
78 | C28U A67C C128U | 0.09
79 | C28U G32A U47C | 0.69
80 | C28U U52C G125A G137U | 0.11
81 | C28U U104C U109A | 1.3
82 | U29A A30G U62C A121U | 0.08
83 | U29A A31G A43G U47A A50U U96C C116U | 0.09
84 | U29A A31U U73C U100C | 0
85 | U29A A42G A79G | 1.6
86 | U29A A43G C145A | 1.46
87 | U29A A43G U52A A117G | 0.98
88 | U29A A50G C113U A140G | 0.14
89 | U29A A57U A69G A107G | 0.13
90 | U29A A64G U87C G89A | 0
91 | U29A A64U A142G | 0.23
92 | U29A A64U U119A | 0.56
93 | U29A A65G G106U | 0.1
94 | U29A A65G U102C | 0
95 | U29A A69U U132C | 0.04
96 | U29A A94U U115C A117U A124U | 0.48

Row | Variant | self-cleavage
97 | U29A G53A A94U | 0.17
98 | U29A U39C U102C | 1.05
99 | U29A U46A G144A | 1.3
100 | U29A U47A A64G | 0.29
101 | U29A U62A U112A | 0.06
102 | U29A U96A U134C | 0
103 | U29A U100C A140G | 2.02
104 | U29A U112C A124G | 1.08
105 | U29A U115C U143C | 0.36
106 | U29C A30G U46A A136U | 2.8
107 | U29C A30G U115C | 1.84
108 | U29C A42G A140U | 1.38
109 | U29C A42U A136G | 1.12
110 | U29C A43G A67G U119C | 0
111 | U29C A43U A78G | 1.78
112 | U29C A57U A67C A129U | 0
113 | U29C A59U A140U | 0.5
114 | U29C A64G A136G | 0.48
115 | U29C A64U U73C A141G | 0.29
116 | U29C A65G A136G | 0.15
117 | U29C A65G U100A | 0.08
118 | U29C A65G U115C A136G | 0
119 | U29C A67G A77U U119C | 0.61
120 | U29C A67G A78U | 0.66

Row | Variant | self-cleavage
121 | U29C A67G A142G | 0.62
122 | U29C A67G U96G A140G | 0
123 | U29C A67G U102C | 0
124 | U29C A67U U143C | 0.5
125 | U29C A69G A140G | 0.25
126 | U29C A69U U73C U102A | 0.34
127 | U29C A79G G139A | 1.22
128 | U29C A92U A121G | 1.15
129 | U29C A94G A107G A141G | 0
130 | U29C A94G C113A | 0.67
131 | U29C A129G U143C | 0.92
132 | U29C A138U A140G | 1.86
133 | U29C A141G U143C | 2.04
134 | U29C C61U A67U | 0
135 | U29C C63A U87C | 0
136 | U29C C68U U100C A136U | 0.46
137 | U29C C111U U119C | 1.34
138 | U29C C113U A140G | 0.72
139 | U29C G32A A59G A92G | 0.35
140 | U29C G34U A77G | 1.86
141 | U29C G72C A141G | 1.36
142 | U29C G114A U119C | 0
143 | U29C G137A U143C | 1.16
144 | U29C U39A A57U | 1.02

Row | Variant | self-cleavage
145 | U29C U39A A77G C128U | 2.21
146 | U29C U39A A94G U96C A138G | 0
147 | U29C U39C A42G A117U | 1.71
148 | U29C U39C U102C A138G | 2.3
149 | U29C U45A A141G A142G | 1.59
150 | U29C U45C C99A A140G | 0.37
151 | U29C U45C G54A U85A | 0.08
152 | U29C U46A G54A U102A | 0.71
153 | U29C U46C A78G U100C | 0.92
154 | U29C U47A A94G | 0.46
155 | U29C U47A U85C G88A | 0.07
156 | U29C U47A U100C U109C | 1.84
157 | U29C U47C C66U | 0.04
158 | U29C U47C U62C G114A | 0.1
159 | U29C U47C U102C | 1.84
160 | U29C U52A U104A U130C | 1.4
161 | U29C U62C A78G A142G | 0.2
162 | U29C U62C A141G | 0.1
163 | U29C U62C U87A U91C U100A U143C | 0
164 | U29C U85A U112C | 0.18
165 | U29C U85C A129G A141G | 0
166 | U29C U85C U102C A142G | 0.25
167 | U29C U87C A129U | 0.41
